Measurements as given in publication PMC9911399, “Two distinct binding modes provide the RNA-binding protein RbFox with extraordinary sequence specificity”.
Where a chain is given by its changes, count along the chain named. The list shows a part of the results.

T1: RBFOX1 RRM (Homo sapiens, UniProt Q9NWB1 109-208)
T1 sequence: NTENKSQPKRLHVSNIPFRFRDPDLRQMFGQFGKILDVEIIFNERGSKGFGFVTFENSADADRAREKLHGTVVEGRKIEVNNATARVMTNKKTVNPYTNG

B1: GAUGUUU (DNA:RNA)
RNA: GGGAGACCGGAAUUCAGAUUGUCCGAUGUUUUUAAAUCCCGUCGUAGCCACCA
DNA 1: CAATCTGAATTCCGGTCTCCC
DNA 2: TGGTGGCTACGACGGGATT
B2: CCGGGGA (DNA:RNA)
RNA: B1 RNA with G25C, A26C, U27G, U29G, U30G, U31A
DNA 1: CAATCTGAATTCCGGTCTCCC
DNA 2: TGGTGGCTACGACGGGATT
B3: GCGGCGU (DNA:RNA)
RNA: B1 RNA with A26C, U27G, U29C, U30G
DNA 1: CAATCTGAATTCCGGTCTCCC
DNA 2: TGGTGGCTACGACGGGATT
B4: UACAACU (DNA:RNA)
RNA: B1 RNA with G25U, U27C, G28A, U29A, U30C
DNA 1: CAATCTGAATTCCGGTCTCCC
DNA 2: TGGTGGCTACGACGGGATT
B5: CUGAGAC (DNA:RNA)
RNA: GGGAGACCGGAAUUCAGAUUGUCCCUGAGACUUAAAUCCCGUCGUAGCCACCA
DNA 1: CAATCTGAATTCCGGTCTCCC
DNA 2: TGGTGGCTACGACGGGATT
B6: CGAUCUA (DNA:RNA)
RNA: B5 RNA with U26G, G27A, A28U, G29C, A30U, C31A
DNA 1: CAATCTGAATTCCGGTCTCCC
DNA 2: TGGTGGCTACGACGGGATT
B7: AAUCUGA (DNA:RNA)
RNA: B1 RNA with G25A, G28C, U30G, U31A
DNA 1: CAATCTGAATTCCGGTCTCCC
DNA 2: TGGTGGCTACGACGGGATT
B8: CCCGGGU (DNA:RNA)
RNA: B5 RNA with U26C, G27C, A28G, A30G, C31U
DNA 1: CAATCTGAATTCCGGTCTCCC
DNA 2: TGGTGGCTACGACGGGATT
B9: ACUGUAA (DNA:RNA)
RNA: B1 RNA with G25A, A26C, U30A, U31A
DNA 1: CAATCTGAATTCCGGTCTCCC
DNA 2: TGGTGGCTACGACGGGATT
B10: GUAGCUC (DNA:RNA)
RNA: B1 RNA with A26U, U27A, U29C, U31C
DNA 1: CAATCTGAATTCCGGTCTCCC
DNA 2: TGGTGGCTACGACGGGATT
B11: GUAAACC (DNA:RNA)
RNA: B5 RNA with C25G, G27A, G29A, A30C
DNA 1: CAATCTGAATTCCGGTCTCCC
DNA 2: TGGTGGCTACGACGGGATT
B12: CUUCAAC (DNA:RNA)
RNA: B5 RNA with G27U, A28C, G29A
DNA 1: CAATCTGAATTCCGGTCTCCC
DNA 2: TGGTGGCTACGACGGGATT
B13: GCUGCAC (DNA:RNA)
RNA: B1 RNA with A26C, U29C, U30A, U31C
DNA 1: CAATCTGAATTCCGGTCTCCC
DNA 2: TGGTGGCTACGACGGGATT
B14: UCAAGUU (DNA:RNA)
RNA: B5 RNA with C25U, U26C, G27A, A30U, C31U
DNA 1: CAATCTGAATTCCGGTCTCCC
DNA 2: TGGTGGCTACGACGGGATT
B15: CUAGGCU (DNA:RNA)
RNA: B5 RNA with G27A, A28G, A30C, C31U
DNA 1: CAATCTGAATTCCGGTCTCCC
DNA 2: TGGTGGCTACGACGGGATT
B16: CUUGGGC (DNA:RNA)
RNA: B5 RNA with G27U, A28G, A30G
DNA 1: CAATCTGAATTCCGGTCTCCC
DNA 2: TGGTGGCTACGACGGGATT
B17: GCUGAAG (DNA:RNA)
RNA: B1 RNA with A26C, U29A, U30A, U31G
DNA 1: CAATCTGAATTCCGGTCTCCC
DNA 2: TGGTGGCTACGACGGGATT
B18: UUGAUAG (DNA:RNA)
RNA: B5 RNA with C25U, G29U, C31G
DNA 1: CAATCTGAATTCCGGTCTCCC
DNA 2: TGGTGGCTACGACGGGATT
B19: CUAUAUG (DNA:RNA)
RNA: B5 RNA with G27A, A28U, G29A, A30U, C31G
DNA 1: CAATCTGAATTCCGGTCTCCC
DNA 2: TGGTGGCTACGACGGGATT
B20: GUAAGGG (DNA:RNA)
RNA: B5 RNA with C25G, G27A, A30G, C31G
DNA 1: CAATCTGAATTCCGGTCTCCC
DNA 2: TGGTGGCTACGACGGGATT
B21: CUUCCAG (DNA:RNA)
RNA: B5 RNA with G27U, A28C, G29C, C31G
DNA 1: CAATCTGAATTCCGGTCTCCC
DNA 2: TGGTGGCTACGACGGGATT
B22: UCGAGUA (DNA:RNA)
RNA: B5 RNA with C25U, U26C, A30U, C31A
DNA 1: CAATCTGAATTCCGGTCTCCC
DNA 2: TGGTGGCTACGACGGGATT
B23: AAUAACA (DNA:RNA)
RNA: B1 RNA with G25A, G28A, U29A, U30C, U31A
DNA 1: CAATCTGAATTCCGGTCTCCC
DNA 2: TGGTGGCTACGACGGGATT
B24: GAUGUUC (DNA:RNA)
RNA: B1 RNA with U31C
DNA 1: CAATCTGAATTCCGGTCTCCC
DNA 2: TGGTGGCTACGACGGGATT
B25: UGCCCCU (DNA:RNA)
RNA: B1 RNA with G25U, A26G, U27C, G28C, U29C, U30C
DNA 1: CAATCTGAATTCCGGTCTCCC
DNA 2: TGGTGGCTACGACGGGATT
B26: ACCAGUA (DNA:RNA)
RNA: B5 RNA with C25A, U26C, G27C, A30U, C31A
DNA 1: CAATCTGAATTCCGGTCTCCC
DNA 2: TGGTGGCTACGACGGGATT
B27: AGGACAA (DNA:RNA)
RNA: B5 RNA with C25A, U26G, G29C, C31A
DNA 1: CAATCTGAATTCCGGTCTCCC
DNA 2: TGGTGGCTACGACGGGATT
B28: UUGCAUU (DNA:RNA)
RNA: B5 RNA with C25U, A28C, G29A, A30U, C31U
DNA 1: CAATCTGAATTCCGGTCTCCC
DNA 2: TGGTGGCTACGACGGGATT
B29: UCUACUU (DNA:RNA)
RNA: B1 RNA with G25U, A26C, G28A, U29C
DNA 1: CAATCTGAATTCCGGTCTCCC
DNA 2: TGGTGGCTACGACGGGATT
B30: GGCGGCC (DNA:RNA)
RNA: B5 RNA with C25G, U26G, G27C, A28G, A30C
DNA 1: CAATCTGAATTCCGGTCTCCC
DNA 2: TGGTGGCTACGACGGGATT
B31: CGCGCGA (DNA:RNA)
RNA: B5 RNA with U26G, G27C, A28G, G29C, A30G, C31A
DNA 1: CAATCTGAATTCCGGTCTCCC
DNA 2: TGGTGGCTACGACGGGATT

What follows are binders tested against T1, RBFOX1 RRM (assay: EMSA; HiTS-Eq, 1 nM pool, 10 min; buffer printed only for the single-RNA assays: 10 mM Tris pH 7.5, 150 mM NaCl, 3.4 mM EDTA, 0.001% NP-40, 30 C). Details: tags: His6 N-terminal (pET28a); label: 5' 32P.
In short: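 Purified RbFox RRM, wild type or mutant, was incubated for 10 min in 50 µL with 1 nM of a 5′-radiolabelled RNA pool carrying 7 randomized nucleotides, whose flanks were annealed to DNA oligonucleotides, over a series of increasing protein concentrations. Unbound RNA was resolved on 8% native PAGE, cut out, reverse-transcribed, barcoded by PCR and sequenced on an Illumina HiSeq 2500. Relative association constants were derived from changes in read counts for each RNA species versus the control reaction and normalised to the cognate motif.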
For B1, the binding signal was 0.0193 KA relative to UGCAUGU. For B2, the binding signal was 0.0059 KA relative to UGCAUGU. B3 was tested, and the binding signal was 0.0221 KA relative to UGCAUGU. For B4, the binding signal was 0.00104 KA relative to UGCAUGU. In the case of B5, the binding signal is reported as 0.0109 KA relative to UGCAUGU. For B6, the binding signal was 0.00481 KA relative to UGCAUGU. With B7 the binding signal was 0.014 KA relative to UGCAUGU. With B8 the binding signal was 0.00573 KA relative to UGCAUGU. For B9, the binding signal was 0.00133 KA relative to UGCAUGU. For B10, the binding signal was 0.0123 KA relative to UGCAUGU. With B11 the binding signal was 0.00277 KA relative to UGCAUGU. For B12, the binding signal was 0.00234 KA relative to UGCAUGU. For B13, the binding signal was 0.0251 KA relative to UGCAUGU. In the case of B14, the binding signal is reported as 0.00624 KA relative to UGCAUGU. In the case of B15, the binding signal is reported as 0.0118 KA relative to UGCAUGU. In the case of B16, the binding signal is reported as 0.00507 KA relative to UGCAUGU. For B17, the binding signal was 0.0207 KA relative to UGCAUGU. In the case of B18, the binding signal is reported as 0.0223 KA relative to UGCAUGU. B19 was tested, and the binding signal was 0.0105 KA relative to UGCAUGU. In the case of B20, the binding signal is reported as 0.00398 KA relative to UGCAUGU. In the case of B21, the binding signal is reported as 0.00447 KA relative to UGCAUGU. With B22 the binding signal was 0.0131 KA relative to UGCAUGU. With B23 the binding signal was 0.00107 KA relative to UGCAUGU. B24 was tested, and the binding signal was 0.0179 KA relative to UGCAUGU. For B25, the binding signal was 0.0119 KA relative to UGCAUGU. B26 was tested, and the binding signal was 0.00176 KA relative to UGCAUGU. With B27 the binding signal was 0.0149 KA relative to UGCAUGU. For B28, the binding signal was 0.0186 KA relative to UGCAUGU. With B29 the binding signal was 0.00231 KA relative to UGCAUGU. For B30, the binding signal was 0.0183 KA relative to UGCAUGU. In the case of B31, the binding signal is reported as 0.0141 KA relative to UGCAUGU.
